# According to PubChem BioAssay AID463173 (ICCB-Longwood Screening Facility, Harvard Medical School, 2010):
# The whole screen tested about 52,000 compounds, of which about 4,300 (8.3%) were called active. Rule as the data show it: active = survival mostly below about 52% (no sharp cut-off); inactive = mostly above about 56%. Some of the results follow.
# System: DeltatarO mutant
# Experiment: S. aureus survival, RN4220 and DeltatarO strains – OD600, teichoic acid synthesis inhibitors, primary screen (AID 463173)
# Settings: S. aureus RN4220 wild type/DeltatarO growth, OD600, 18 h, hits give low values, screened at 18.75 µg/mL (by protocol)
row,Structure (SMILES),survival
1,Cc1ccc(C(=O)NCC(c2ccc(Cl)cc2)N2CCCCC2)cc1 (stereo not drawn),inactive: 64%
2,COCCCNC(=O)CCCn1c(SCC(=O)c2ccc(Br)cc2)nc2c(sc3ccccc32)c1=O,inactive: 58%
3,CCc1ccc(NC(=O)C2CCCN(S(=O)(=O)c3ccc4c(c3)oc(=O)n4C)C2)cc1 (stereo not drawn),inactive: 89%
4,CCOc1ccc(C(=O)N2CC(=O)Nc3ccc(C)cc3C2c2ccc(F)cc2)cc1OCC (stereo not drawn),inactive: 67%
5,COc1cccc(CNC(=O)c2cccc(N3CCCS3(=O)=O)c2)c1,inactive: 79%
6,Cc1ccc(Cl)c2sc(NC(=O)c3ccc(S(=O)(=O)N4CCCC4)cc3)nc12,inactive: 63%
7,Cc1ccc(CNc2ccc(N3CCOCC3)cc2)cc1,inactive: 78%
8,Cc1cc(Nc2ccccc2C)c2cccc(C)c2n1,inactive: 62%
9,CCC(C)n1c(SCC(=O)Nc2ccccc2C(=O)OC)nc2ccsc2c1=O (stereo not drawn),active: 17%
10,O=C(NCc1c(-n2cccc2)sc2c1CCCC2)Nc1cccc(C(F)(F)F)c1,inactive: 75%
11,Cn1c(Cc2ccccc2)nnc1SCC#N,inactive: 97%
12,O=C(CSc1nccn1Cc1ccc2c(c1)OCO2)Nc1ccccc1F,inactive: 83%
13,Cc1nn(-c2ccccc2)c2[nH]c(=O)c(CNc3ccccc3)cc12,inactive: 83%
14,COc1cc(NC(=O)CCn2nc(C)cc2C)cc(OC)c1OC,inactive: 78%
15,CCCn1c(=O)sc2cc(NC(=O)c3ccccc3Cl)ccc21,inactive: 61%
16,Cc1ccc(-c2noc(CNC(C)C)n2)cc1,inactive: 77%
17,COc1ccc(-c2cc(C(=O)Nc3ccc4c(c3)OCO4)no2)cc1,inactive: 50%
18,CCC1CCCCN1CCCNC(=O)c1cn(C)c2ccc(S(=O)(=O)N(C)C3CCCCC3)cc2c1=O (stereo not drawn),inactive: 90%
19,COc1cccc(N2CCN(C(=O)c3cccn3-c3nnc(N4CCCCC4)s3)CC2)c1,inactive: 107%
20,COc1cccc(NC(=O)c2oc3ccc(S(=O)(=O)N(C)C4CCCCC4)cc3c2C)c1,inactive: 90%

row,Structure (SMILES),survival
1,CC(C)(C)OC(=O)N1CCC(c2c(C(=O)N3CCCCC3)cnn2-c2ccc(F)cc2)CC1,inactive: 93%
2,Cc1ccc(C)c(NC(=O)CSc2nc3ccccc3nc2N2CCOCC2)c1,inactive: 85%
3,CCSc1ccccc1C(=O)N1CCN(c2nc3ccccc3s2)CC1,inactive: 92%
4,CCc1nn(CC(=O)NCCc2ccc(Cl)cc2)c(=O)c2cc3c(OC)cccc3n12,inactive: 75%
5,COc1ccccc1C(=O)Nc1cccc(OCc2cc(=O)n3ccccc3n2)c1,inactive: 94%
6,COC(=O)c1ccc(NC(=O)c2cnn(-c3ccc(Cl)cc3)c2C2CCN(C(=O)OC(C)(C)C)CC2)cc1,inactive: 86%
7,Cc1cc(C)c(NC(=O)c2cc(C)nc3c2c(C)nn3-c2cccc(F)c2)c(C)c1,inactive: 94%
8,CCc1ccc(-c2nn(-c3ccc(OC)cc3)c3c2cnc2ccc(OC)cc23)cc1,active: 14%
9,CCN(CC)C(=O)c1c(NC(=O)c2ccccc2F)sc2c1CCC(C(C)(C)C)C2 (stereo not drawn),active: -8%
10,CCn1c(O)c(C=Nc2cccc(O)c2)sc1=S,inactive: 82%
11,COc1cc(OC)cc(C(=O)Nc2nc(-c3nnn(-c4ccc(C)cc4)c3C)ns2)c1,inactive: 118%
12,CCOC(=O)C1=C(CN2CCC(C)CC2)NC(=O)NC1c1ccc(OC(C)C)cc1 (stereo not drawn),inactive: 80%
13,COc1cc(/C=C(/C#N)c2nc(-c3cc4ccccc4oc3=O)cs2)ccc1O,inactive: 104%
14,Cc1c(Cl)cccc1NC(=O)Nc1c[nH]c(=O)[nH]c1=O,inactive: 90%
15,Cc1cccc(NC(=O)CSc2nc3c([nH]c4ccccc43)c(=O)n2-c2cc(C)cc(C)c2)c1,inactive: 94%
16,COc1cccc(C=Nc2cccc3c(=O)[nH][nH]c(=O)c23)c1O,inactive: 56%
17,CC1CCCCN1C(=O)CSc1nc(-c2ccccc2)no1 (stereo not drawn),inactive: 83%
18,CCc1ccc2occ(CC(=O)N(Cc3ccccc3)C3CCS(=O)(=O)C3)c2c1 (stereo not drawn),inactive: 74%
19,Cc1nc2ccccc2n1C1CCN(C(=O)NC2CCCCC2)CC1,inactive: 87%
20,Cc1ccc(NC(=O)CN2C(=O)C(c3ccccc3)=NC23CCCCC3)cc1C,inactive: 75%

row,Structure (SMILES),survival
1,CCS(=O)(=O)N1CCCc2cc(C(=O)Nc3cc([N+](=O)[O-])ccc3C)ccc21,active: 42%
2,COc1ccc(-n2c(C)nc3c(cnn3-c3ccc(C)c(C)c3)c2=O)cc1Cl,inactive: 118%
3,COc1cccc(CNC(=O)Cn2c(=O)ccc3cc(S(=O)(=O)N4CCCC4)ccc32)c1,inactive: 98%
4,CCc1ccc(S(=O)(=O)c2nnn3c2nc(N(C)Cc2ccccc2)c2cc(Cl)ccc23)cc1,inactive: 82%
5,COc1ccc(Nc2nc3c(S(=O)(=O)c4ccccc4)nnn3c3ccc(Cl)cc23)cc1,inactive: 95%
6,CCN(CC)CCCNC(=O)c1cn(CC)c2ccc(S(=O)(=O)N3CCC(C)CC3)cc2c1=O,inactive: 105%
7,Cc1cc(=O)n(CC(=O)N2CCCCC2)c2c1c(C)nn2C,inactive: 75%
8,O=C(Cc1ccccc1)NC1CCS(=O)(=O)C1 (stereo not drawn),inactive: 97%
9,CC(OC(=O)c1ccco1)C(=O)NC1CCCC1 (stereo not drawn),inactive: 107%
10,CCOC(=O)c1ccccc1NC(=O)CSc1nc(=O)[nH]c2c1CCCC2,inactive: 77%
11,COc1ccc(NC(=O)c2ccco2)cc1NC(=O)c1cc2ccccc2o1,inactive: 95%
12,COc1ccc(Br)cc1CNC(=O)Cn1nc(C)n2c(cc3cc(F)ccc32)c1=O,inactive: 67%
13,Cc1ccccc1CNC(=O)Cn1nc(C)c2nn(-c3ccc(Cl)cc3)c(C)c2c1=O,active: 37%
14,CCOC(=O)c1sc2ccccc2c1S(=O)(=O)Nc1cc(OC)ccc1OC,inactive: 94%
15,Cc1ccc(C)c(N2CCN(S(=O)(=O)c3ccc4[nH]c5c(c4c3)CCCC5)CC2)c1,active: -2%
16,COc1ccc(CNCc2c(C(=O)O)c(C)n(Cc3ccccc3C)c2C)cc1OC,inactive: 91%
17,COc1ccc(N2CCN(c3ncccc3-c3nc(-c4ccccc4C)no3)CC2)cc1,inactive: 56%
18,CCOc1ccc(C2C(=O)N(C3CCCCC3)CC(=O)N2Cc2ccc(F)cc2)cc1OC (stereo not drawn),inactive: 61%
